These results are taken from ChEMBL document CHEMBL1201862, “PubChem BioAssay data set” (2004).

Values joined by “and” are separate entries in the source; they are usually repeats but may differ in a detail not shown here. Identical values can stand only once.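 Briefly, cells in 96-well plates were exposed to five compound concentrations for 48 h, and endpoints were estimated by linear interpolation. Here, GI50 denotes the concentration required for 50% inhibition of growth.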 Active and inactive are the calls of the source. Cut-off read from the data, not from the text of the source: active = GI50 up to about 1.1 µM and inactive = higher. A value given as a limit tells only on which side of the number the result lay.

For the experiment, the system named is NCI-H322M. Put plainly: growth of human tumour cells (NCI), 48 h.
For the compound `COc1ccc(/C=C/C(=O)CC(=O)/C=C/c2ccc(OC)cc2)cc1`, the GI50 was inactive: > 100 µM.
Under `CC(Oc1ccc2c(-c3ccccc3)cc(=O)oc2c1)C(=O)O` (stereo not drawn) stands inactive: > 100 µM; under `O=[As](O)(O)c1ccc(NCc2ccccc2)cc1`, inactive: > 100 µM; under `CC1CN=C(Nc2ccc(F)c(Cl)c2)S1` (stereo not drawn), inactive: > 100 µM.
As for `c1cc(NNc2cccc(-c3nnn[nH]3)c2)cc(-c2nnn[nH]2)c1`, the GI50 is inactive: > 100 µM.
As for `CCOc1cc2c(cc1O)C(=O)C[C@@H]1[C@@H]2CC[C@]2(C)[C@@H](O)CC[C@@H]12`, the GI50 was active: 0.65 µM.
As for `O=CNc1ncn[nH]1`, the figure is inactive: > 100 µM; as for `COc1ccc(C(C2=C(C)C(=O)c3ccccc3C2=O)c2ccc(C(C)C)cc(=O)c2O)cc1` (stereo not drawn), inactive: 4.68 µM; as for `O=C1OCC(CN2CCC(n3c(=O)[nH]c4ccccc43)CC2)=C1c1ccccc1`, inactive: 28.2 µM.
Take `COc1ccc2c(c1O)C13CCN(C)C(C2)C1CCC1(C3)OCCO1` (stereo not drawn): the GI50 was inactive: > 100 µM.
Under `O=CCCCCCOCc1ccccc1` stands inactive: > 100 µM; under `Cc1cccc(NC(=O)CC2C(=O)Nc3ccccc3S2(=O)=O)c1C` (stereo not drawn), inactive: 90.4 µM; under `CC(=O)Nc1ccc2c3c(cc(O)c2c1)N(C(=O)CCCCC(=O)N1CC(CCl)c2c1cc(O)c1cc(NC(C)=O)ccc21)CC3CCl` (stereo not drawn), inactive: 1.66 µM.
As for `CS(=O)(=O)N1CC(CCl)c2ccc([N+](=O)[O-])cc21` (stereo not drawn), the figure is inactive: > 100 µM; as for `Nc1ccc(Oc2ccc(C34CC5C6CC7(c8ccc(Oc9ccc(N)cc9)cc8)CC5C(C3)C(C7)C6C4)cc2)cc1`, inactive: > 100 µM; as for `COc1cccc(-c2cc(C(=O)Nc3ccc(Cl)cc3)nc(N)n2)c1`, inactive: > 100 µM.
Under `O=C1OC(CCCl)(c2ccccc2)CC1CN1CCOCC1` (stereo not drawn) stands inactive: 43 µM.
As to `Cc1[nH]c(-c2ccccc2)c(-c2ccc(Cl)cc2)c1C(=O)ONC(=O)c1ccccc1`, the GI50 is inactive: 9.02 µM.
Under `CC(=O)NCCCCN(CCCNC(C)=O)C(=O)CNS(=O)(=O)c1cccc2c(N(C)C)cccc12` stands inactive: > 100 µM.
As for `Cc1cc(C)c(OC(=O)Nc2cccc3ccccc23)c(-c2ccccc2)c1`, the figure is inactive: 43.8 µM; as for `Cc1csc(=S)n1OC(=O)NC1CCCCC1`, inactive: 75.3 µM.
Turning to `C/N=C(N)/N=C(\N)Nc1cc2ccccc2c2ccccc12`, the GI50 was inactive: 15.5 µM.
As for `CCC/C(C)=N/NC(=S)SC.CCC/C(C)=N/NC(=S)SC.[Zn+2]`, the figure is inactive: 6.53 µM.
As for `CCOC(=O)/C=C(/C(=O)OCC)n1cnc2c(=O)[nH]c(NC(C)=O)nc21`, the figure is inactive: > 100 µM; as for `CCC/N=C/c1c(O)c(O)c(C(C)C)c2cc(C)c(-c3c(C)cc4c(C(C)C)c(O)c(O)c(/C=N/CCC)c4c3O)c(O)c12`, inactive: 1.94 µM.
As for `N#CC(C(=O)CCCC(=O)Nc1ccccc1[N+](=O)[O-])c1c(Cl)cccc1Cl` (stereo not drawn), the figure is inactive: > 100 µM.
Turning to `Cc1ccc(NC(=O)CC2Sc3ccccc3NC2=O)cc1C` (stereo not drawn), the GI50 is inactive: 60.5 µM.
Under `COC(=O)[C@@H]1O[C@]12[C@@H](CO[Si](C)(C)C(C)(C)C)O[C@@H](n1cc(C)c(=O)[nH]c1=O)[C@@H]2O[Si](C)(C)C(C)(C)C` stands inactive: 19.2 µM; under `COc1ccc2c(c1O)[C@@]13CCCC=C1[C@@H](C2)[N+](C)(C)CC3`, inactive: > 100 µM.
For the compound `Cc1cccc(/C=N/NC(=S)N(C)CCc2ccccn2)n1`, the GI50 is active: 0.865 µM.
Under `NS(=O)(=O)c1ccc(NNc2c3ccccc3nc3ccccc23)cc1` stands inactive: 13.2 µM.
For the compound `COc1cc(/C=C2\N=C(c3ccccc3)N(c3ccc(S(=O)(=O)Nc4nccs4)cc3)C2=O)ccc1O`, the GI50 was inactive: > 100 µM.
As for `C=C(CO)CC(/C=C(\C)CC/C=C(\C)CCl)OC(C)=O` (stereo not drawn), the figure is inactive: > 100 µM; as for `COC(=O)/C=C/CCC#Cc1ccccc1C#CCC/C=C/C(=O)OC`, inactive: 31.4 µM; as for `Cc1cccc2c1N(C(=O)/C=C\C(=O)O)C(c1c(C)[nH]c3ccccc13)C2` (stereo not drawn), inactive: 39.9 µM.
For the compound `CC(C)=NC(C(=O)O)C(C)(C)S` (stereo not drawn), the GI50 is inactive: > 100 µM.
As for `CC1=NN=C(C)C1/N=N/c1ccc2[nH]c(C)nc2c1`, the figure is inactive: 23.4 µM.
Consider `Clc1ccc(CN2COc3c(cc(Cl)c4cccnc34)C2)cc1`, for which the GI50 was inactive: 3.52 µM.
Consider `C[C@@H]1CCC([C@@H](C)[C@H]2CC[C@H]3[C@@H]4CC[C@H]5C[C@@H](O)CC[C@]5(C)[C@H]4CC[C@]23C)=NC1`, for which the GI50 is inactive: 17.2 µM.
On to `CCOC(=O)c1ccc(C(=O)C(C(C)=O)C(=O)OC(C)(C)C)n1C` (stereo not drawn), for which the GI50 was inactive: > 100 µM.
Under `C[C@]12CC[C@H]3[C@@H](CC=C4C[C@@H](O)CC[C@@]43C)[C@@H]1CC[C@@H]2N(CCO)CCO` stands inactive: 48.1 µM; under `COc1ccc(C[C@@H]2CN(C(=O)c3ccccc3)[C@H](Cc3ccc(O)cc3)CN2C(=O)c2ccccc2)cc1Br`, inactive: > 100 µM.
Consider `O=[N+]([O-])c1cccnc1NCC1(CO)CCCC1`, for which the GI50 is inactive: 23.4 µM.
As for `O=NN1C(c2ccccc2)CCCC1c1ccccc1` (stereo not drawn), the figure is inactive: > 100 µM.
In the case of `COc1ccc(N2C(=O)C3CC(c4ccc(C)cc4)c4c([nH]c5ccccc45)C3C2=O)cc1` (stereo not drawn), the GI50 was inactive: 14.8 µM.
Take `O=C1/C(=C/c2ccc(Cl)cc2)NC(=S)N1CN1CCCCC1`: the GI50 is inactive: > 100 µM.
Under `CCn1c(-c2ccc(OC)cc2)nc2c1C(=O)c1ccccc1C2=O` stands inactive: > 100 µM; under `CC1(Cc2ccccc2)NC(=S)NC1=O` (stereo not drawn), inactive: > 100 µM; under `C=CCCCn1ccc2ccccc21`, inactive: > 100 µM.
As for `C1=C(N2CCOCC2)/C(=C2\SC(=N/c3ccccc3)/C(=N\c3ccccc3)N2c2ccccc2)CC1`, the figure is inactive: > 100 µM; as for `C/C(=N\NC(=S)Nc1ccccc1)c1nc2cccnc2[nH]1`, inactive: 5.02 µM; as for `O=C1NC(Nc2cccc(Cl)c2)=N/C1=C\c1ccc(Cl)c(Cl)c1`, inactive: 4.46 µM.
Take `CC1=C(c2cc(C(=O)Nc3ccc(Cl)cc3)nc(S)n2)Sc2ccccc2N1`: the GI50 is inactive: > 100 µM.
Under `COc1ccc(C(NCCNC(c2ccc(OC)c(OC)c2)c2cc3c(cc2O)OCO3)c2cc3c(cc2O)OCO3)cc1OC` (stereo not drawn) stands inactive: 8.91 µM; under `CN(C)/C=N/c1ccc2c3c(cccc13)-c1ccccc1-2`, inactive: 14.8 µM; under `COc1ccc(OC)c(CNc2ccc(C(=O)O)cc2)c1`, inactive: > 100 µM.
In the case of `CC1(C)OC(=O)[C@@](C)([C@H](O)c2ccccc2)O1`, the GI50 was inactive: > 100 µM.
As for `Cc1ccc(/C=C2\CCS(=O)(=O)c3ccccc3C2=O)cc1`, the GI50 was inactive: 19.2 µM.
Consider `Cn1c2c3c(F)c(F)ccc3nc-2cc2ccccc21`, for which the GI50 was inactive: 7.1 µM.
As for `CCCCOCCOC1=CC(=O)c2c(O)ccc(O)c2C1=O`, the figure is inactive: 1.67 µM; as for `Cc1ccc(/C=C2/N/C(=N\N=C/C(O)C(O)C(O)C(O)CO)NC2=O)cc1` (stereo not drawn), inactive: > 100 µM.
Turning to `O=C1C[S+]([O-])C23c4cc5ccccc5n4CCC2CCCN13` (stereo not drawn), the GI50 was inactive: > 100 µM.
Consider `CCCC(=O)/C=C/S/C=C/C(=O)CCC`, for which the GI50 was inactive: 16.9 µM.
As for `COC(=O)[C@@]12C(=O)C(C)C(=O)[C@]1(C)C(C)=C[C@H]1[C@]3(C=O)CC[C@H](OC(C)=O)C(C)(C)[C@H]3CC[C@@]12C` (stereo partly drawn), the GI50 is inactive: > 100 µM.
Under `Cn1c(S)nc2c(Cl)cc(Cl)cc2c1=O` stands inactive: > 100 µM; under `Cc1cc(C)c(N)c(CO)c1`, inactive: > 100 µM and inactive: > 75 µM.
As for `C=CCCC1CCCCC/C1=N\N(C)C` (stereo not drawn), the figure is inactive: > 100 µM; as for `Cc1ccc(S(=O)(=O)N2CCSCCSCCSCCN(S(=O)(=O)c3ccc(C)cc3)CC2)cc1`, inactive: > 100 µM.
Under `CN(C(=O)Cc1cc(Cl)c(Cl)cc1NC(=O)CCCN)[C@H]1CCCC[C@@H]1N1CCCC1` stands inactive: 34.8 µM.
For `COc1ccc2c(N=[N+]=[N-])c(-c3ccccc3)c(=O)oc2c1`, the GI50 was inactive: > 100 µM.
Regarding `CN(C)CC1CCCC(CN(C)C)C1=NOC(=O)c1ccccc1` (stereo not drawn), the GI50 was inactive: > 100 µM.
Under `COc1ccc(-c2c3ccccc3c(-c3ccc(OCCCCCBr)cc3)c3ccccc23)cc1` stands inactive: > 100 µM.
For `CCNCC(O)COc1ccc2c(c1)[n+]([O-])nc(N)[n+]2[O-]` (stereo not drawn), the GI50 was inactive: 37.2 µM.
As for `COC(=O)c1cc(C#N)[nH]c1-c1cccs1`, the figure is inactive: > 100 µM; as for `Cc1ccc2nc(NC(=O)C(=O)C3C(=O)NC(=S)NC3=O)sc2c1`, inactive: > 100 µM; as for `Cc1cc2nc(N3C(=O)/C(=C/c4cccc([N+](=O)[O-])c4)N=C3c3ccccc3)sc2cc1C`, inactive: 48.4 µM.
As for `CCCCCC[C@H]1CC(=O)C2CCCC[C@@]23CC[C@H](CCl)N13.CCCCCC[C@H]1CC(=O)C2CCCC[C@@]23C[C@H](Cl)CN13` (stereo partly drawn), the figure is inactive: > 100 µM; as for `CC(NP(=O)(c1ccccc1)c1ccccc1)c1ccccc1` (stereo not drawn), inactive: > 100 µM.
Regarding `COC(=O)c1ccc2cc(O)c(O)cc2c1`, the GI50 is inactive: 50.4 µM.
As to `ClC1(Cl)C(c2ccccc2)C1c1ccccc1` (stereo not drawn), the GI50 is inactive: 43.8 µM.
As for `CCNc1nnc(-c2nsc3ccccc23)s1`, the figure is inactive: 20.2 µM.
As for `O=c1cccccc1O.O=c1cccccc1O.O=c1cccccc1O.[SiH4]`, the figure is inactive: 22.5 µM; as for `CCN(CCCl)CCCNc1c2ccccc2nc2ccc(OC)cc12`, active: 0.565 µM.
